In PMC4336329 (PLoS ONE, 2015):
Among all 310,000 compounds or so, about 14,000 (4.5%) showed an effect of 50% or more. The effect is printed as a negative number. Some of the results follow.

These compounds were tested against human ether-à-go-go-related gene (hERG) potassium channel (human, UniProt Q12809) (assay: primary screen, population patch clamp on CHO cells stably expressing hERG).
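Further: peak tail current of the secondary pulse compared with the same well before compound.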

Chain of human ether-à-go-go-related gene (hERG) potassium channel (Q12809 whole entry, looked up): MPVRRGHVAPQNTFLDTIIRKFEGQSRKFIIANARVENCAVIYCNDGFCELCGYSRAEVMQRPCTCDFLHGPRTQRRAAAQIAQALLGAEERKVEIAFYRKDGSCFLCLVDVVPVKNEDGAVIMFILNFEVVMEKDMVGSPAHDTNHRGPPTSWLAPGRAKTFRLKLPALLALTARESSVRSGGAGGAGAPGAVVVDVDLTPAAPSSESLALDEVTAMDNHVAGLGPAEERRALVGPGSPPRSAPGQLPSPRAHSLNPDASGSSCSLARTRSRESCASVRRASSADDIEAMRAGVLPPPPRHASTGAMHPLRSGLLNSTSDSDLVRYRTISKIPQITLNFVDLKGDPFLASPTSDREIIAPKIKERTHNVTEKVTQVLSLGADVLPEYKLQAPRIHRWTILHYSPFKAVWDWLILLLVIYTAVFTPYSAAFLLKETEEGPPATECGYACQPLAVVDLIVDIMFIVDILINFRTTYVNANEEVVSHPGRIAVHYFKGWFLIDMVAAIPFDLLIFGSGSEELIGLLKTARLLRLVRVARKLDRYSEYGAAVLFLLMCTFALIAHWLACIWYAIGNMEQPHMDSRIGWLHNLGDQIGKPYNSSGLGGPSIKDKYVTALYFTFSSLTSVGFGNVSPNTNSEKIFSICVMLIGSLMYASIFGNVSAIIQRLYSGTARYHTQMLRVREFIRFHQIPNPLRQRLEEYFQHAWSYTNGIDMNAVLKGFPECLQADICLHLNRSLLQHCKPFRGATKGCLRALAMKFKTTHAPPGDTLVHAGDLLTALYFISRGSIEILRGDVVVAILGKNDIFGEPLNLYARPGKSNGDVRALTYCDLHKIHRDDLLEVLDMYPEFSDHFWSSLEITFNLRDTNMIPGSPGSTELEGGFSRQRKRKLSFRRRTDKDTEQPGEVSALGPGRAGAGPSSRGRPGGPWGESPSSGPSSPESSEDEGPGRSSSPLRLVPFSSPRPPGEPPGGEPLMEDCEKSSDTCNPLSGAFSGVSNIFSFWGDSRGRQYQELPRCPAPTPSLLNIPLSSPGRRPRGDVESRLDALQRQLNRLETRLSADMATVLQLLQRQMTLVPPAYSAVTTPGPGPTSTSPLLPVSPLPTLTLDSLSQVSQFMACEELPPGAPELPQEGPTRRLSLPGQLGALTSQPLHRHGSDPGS

Row | Structure (SMILES) | hERG current change (%, negative = inhibition) at 10uM
1 | Cc1cc(/C=C2/C(=N)N3C(=NC2=O)SN=C3S(C)(=O)=O)c(C)n1-c1ccccc1 | 0.917%
2 | CCC(=O)n1nc(-c2ccc(OC)cc2)nc1SC | 21.7%
3 | Cc1cc(C(=O)NC2CCCCC2)on1 | 7.79%
4 | Brc1cccc(CNc2nc3ccccc3n2CCN2CCOCC2)c1 | -76.3%
5 | C=CCNc1nc2ccccc2nc1NS(=O)(=O)c1ccc(F)cc1 | 5.87%
6 | COc1cccc(-c2cc(C(=O)N/N=C/c3cccc(OC)c3OC)c3ccccc3n2)c1 | 0.29%
7 | COc1cc(C(=O)NNC(=O)c2ccccc2Br)ccc1OCC(=O)N1CCOCC1 | 18.5%
8 | CC(=O)NCCc1ccc(S(=O)(=O)N2CCCC2)cc1 | 5.28%
9 | O=C(CSc1nnc(-c2ccccc2F)n1C1CC1)Nc1ccc2[nH]c(=O)[nH]c2c1 | 20.7%
10 | CCc1nc2ccccc2c(C(=O)OCC(=O)NCCCN2CCCC2=O)c1C | 9.99%
11 | COc1ccc(CNC(=O)CCCCCNc2nc(=S)[nH]c3ccccc23)cc1 | 9.93%
12 | Cc1ccccc1NC(=O)N1CCN(C/C=C/c2ccccc2)CC1 | -22.7%
13 | Cc1cccc2cc(CN(CCN(C)C)C(=S)NCc3ccco3)c(=O)[nH]c12 | -38.9%
14 | O=C(NCCc1ccccc1)c1ccccc1NC(=O)C1CCCO1 (stereo not shown) | 14.1%
15 | Nc1ccc2nc(-c3ccc(N)c(Cl)c3)[nH]c2c1 | 10.8%
16 | COc1ccc(C(=O)COC(=O)CSCc2c(C)noc2C)cc1OC | 6.04%
17 | COc1ccc(CN2C(=O)CC(=O)NC2=O)cc1 | -10.2%
18 | NNC(=O)c1nnn(-c2nonc2N)c1-c1cccs1 | -19.8%
19 | CC(C)CCNc1nc(N2CCCC2)c2c(c1C#N)CCN(C)C2 | -58.5%
20 | COc1cc(C(=S)N2CCOCC2)ccc1OS(=O)(=O)c1ccc(Cl)cc1 | -14.3%
21 | Cc1ccc(/C=C2\SC(=S)N(CCC(=O)NNS(=O)(=O)c3ccc(C)cc3)C2=O)cc1 | 28.8%
22 | COc1ccccc1CNC(=O)CNC(=O)N1CC(=O)Nc2ccccc21 | 16.5%
23 | CCOc1cc(CNc2nn[nH]n2)ccc1OCC(=O)NC(C)(C)C | 13.2%
24 | CC(=O)NC1(C(F)(F)F)NC(=O)N(CC(C)C)C1=O (stereo not shown) | 1.53%
25 | Cc1ccc(S(=O)(=O)N2CCCCC2)cc1NC(=O)C1CC(=O)N(c2ccc3c(c2)OCCO3)C1 (stereo not shown) | -3.37%
